# The list shows a part of the results.
# Columns and labels:
# Assay in all cases: glycan array binding signal (z-score within array); higher = stronger binding
# Conditions in all cases: glycan notation: IUPAC condensed, linker removed
# [1] = biological target: Gal(b1-4)GalNAc(b1-3)[Fuc(a1-2)]Gal(b1-4)GlcNAc
# How it was run: (§1)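 Arrays were curated from the Consortium for Functional Glycomics database, 3228 in total, and kept only where the protein sequence was available. Binding is expressed as a within-array Z-score. This score was averaged across arrays of the same protein sequence at different concentrations or buffers and across linkers, and negative values can be read as non-binding.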
# [2] = biological target: Gal(b1-4)Glc
# How it was run: as §1
# [3] = biological target: Gal(b1-4)Glc6S
# How it was run: as §1
# [4] = biological target: Gal(b1-4)GlcNAc
# How it was run: as §1
# [5] = biological target: Gal(b1-4)GlcNAc(a1-6)Gal(b1-4)GlcNAc
# How it was run: as §1
# [6] = biological target: Gal(b1-4)GlcNAc(b1-2)Man
# How it was run: as §1
# [7] = biological target: Gal(b1-4)GlcNAc(b1-2)Man(a1-3)Man(b1-4)GlcNAc(b1-4)GlcNAc
# How it was run: as §1
# [8] = biological target: Gal(b1-4)GlcNAc(b1-2)Man(a1-3)[Gal(b1-4)GlcNAc(b1-2)Man(a1-6)]Man(b1-4)GlcNAc(b1-4)GlcNAc
# How it was run: as §1
# [9] = biological target: Gal(b1-4)GlcNAc(b1-2)Man(a1-3)[Gal(b1-4)GlcNAc(b1-2)Man(a1-6)]Man(b1-4)GlcNAc(b1-4)[Fuc(a1-6)]GlcNAc
# How it was run: as §1
# [10] = biological target: Gal(b1-4)GlcNAc(b1-2)Man(a1-3)[Gal(b1-4)GlcNAc(b1-2)Man(a1-6)][Gal(b1-4)GlcNAc(b1-4)]Man(b1-4)GlcNAc(b1-4)[Fuc(a1-6)]GlcNAc
# How it was run: as §1
# [11] = biological target: Gal(b1-4)GlcNAc(b1-2)Man(a1-3)[Gal(b1-4)GlcNAc(b1-2)Man(a1-6)][GlcNAc(b1-4)]Man(b1-4)GlcNAc(b1-4)[Fuc(a1-6)]GlcNAc
# How it was run: as §1
# [12] = biological target: Gal(b1-4)GlcNAc(b1-2)Man(a1-3)[GlcNAc(b1-2)Man(a1-6)]Man(b1-4)GlcNAc(b1-4)GlcNAc
# How it was run: as §1
# [13] = biological target: Gal(b1-4)GlcNAc(b1-2)Man(a1-3)[GlcNAc(b1-4)][Gal(b1-4)GlcNAc(b1-2)Man(a1-6)]Man(b1-4)GlcNAc(b1-4)GlcNAc
# How it was run: as §1
# [14] = biological target: Gal(b1-4)GlcNAc(b1-2)Man(a1-3)[Man(a1-6)]Man(b1-4)GlcNAc(b1-4)GlcNAc
# How it was run: as §1
# [15] = biological target: Gal(b1-4)GlcNAc(b1-2)Man(a1-6)Man(b1-4)GlcNAc(b1-4)GlcNAc
# How it was run: as §1
# [16] = biological target: Gal(b1-4)GlcNAc(b1-2)Man(a1-6)[GlcNAc(b1-2)Man(a1-3)]Man(b1-4)GlcNAc(b1-4)GlcNAc
# How it was run: as §1
# [17] = biological target: Gal(b1-4)GlcNAc(b1-2)Man(a1-6)[Man(a1-3)]Man(b1-4)GlcNAc(b1-4)GlcNAc
# How it was run: as §1
# [18] = biological target: Gal(b1-4)GlcNAc(b1-2)[Gal(b1-4)GlcNAc(b1-4)]Man(a1-3)[Gal(b1-4)GlcNAc(b1-2)Man(a1-6)]Man(b1-4)GlcNAc(b1-4)GlcNAc
# How it was run: as §1
# [19] = biological target: Gal(b1-4)GlcNAc(b1-2)[Gal(b1-4)GlcNAc(b1-4)]Man(a1-3)[Gal(b1-4)GlcNAc(b1-2)[Gal(b1-4)GlcNAc(b1-6)]Man(a1-6)]Man(b1-4)GlcNAc(b1-4)GlcNAc
# How it was run: as §1
# [20] = biological target: Gal(b1-4)GlcNAc(b1-2)[Gal(b1-4)GlcNAc(b1-4)]Man(a1-3)[GlcNAc(b1-4)][Gal(b1-4)GlcNAc(b1-2)Man(a1-6)]Man(b1-4)GlcNAc(b1-4)GlcNAc
# How it was run: as §1
# [21] = biological target: Gal(b1-4)GlcNAc(b1-2)[Gal(b1-4)GlcNAc(b1-4)]Man(a1-3)[GlcNAc(b1-4)][Gal(b1-4)GlcNAc(b1-2)[Gal(b1-4)GlcNAc(b1-6)]Man(a1-6)]Man(b1-4)GlcNAc(b1-4)GlcNAc
# How it was run: as §1
# [22] = biological target: Gal(b1-4)GlcNAc(b1-2)[Gal(b1-4)GlcNAc(b1-6)]Man(a1-6)[Gal(b1-4)GlcNAc(b1-2)Man(a1-3)]Man(b1-4)GlcNAc(b1-4)GlcNAc
# How it was run: as §1
binder,measurement,setting,value
"CFEM-SCL (Saccharomyces cerevisiae), O13547 (protein) MRATTLLSSVVSLALLSKEVLATPPACLLACVAQVGKSSSTCDSLNQVTCYCEHENSAVKKCLDSICPNNDADAAYSAFKSSCSEQNASLGD",glycan array binding signal (z-score),[1],-0.013
same,glycan array binding signal (z-score),[2],-0.031
same,glycan array binding signal (z-score),[3],0.015
same,glycan array binding signal (z-score),[4],-0.022
same,glycan array binding signal (z-score),[5],0.404
same,glycan array binding signal (z-score),[6],-0.314
same,glycan array binding signal (z-score),[7],-0.171
same,glycan array binding signal (z-score),[8],-0.241
same,glycan array binding signal (z-score),[9],-0.159
same,glycan array binding signal (z-score),[10],-0.291
same,glycan array binding signal (z-score),[11],-0.184
same,glycan array binding signal (z-score),[12],-0.194
same,glycan array binding signal (z-score),[13],-0.229
same,glycan array binding signal (z-score),[14],-0.238
same,glycan array binding signal (z-score),[15],-0.313
same,glycan array binding signal (z-score),[16],-0.271
same,glycan array binding signal (z-score),[17],-0.166
same,glycan array binding signal (z-score),[18],-0.225
same,glycan array binding signal (z-score),[19],-0.199
same,glycan array binding signal (z-score),[20],-0.261
same,glycan array binding signal (z-score),[21],-0.078
same,glycan array binding signal (z-score),[22],-0.253

# Reference: the supplement of paper PMC8728848
